In publication PMC8249470, “Binding of guide piRNA triggers methylation of the unstructured N-terminal region of Aub leading to assembly of the piRNA amplification complex” (Nature Communications, 2021):
Results are given in words; binding and its absence hold for the method and conditions named. Binding seen in cells or lysates may run through a third protein. Some results given as binding are weak or reduced against the parent protein; the word gives no strength. Tags and fused reporters may be left off the sequences shown. One block for each molecule: values may come before it.

By UniProt entry, the sequences of proteins in these tests, tags left out.
UniProt P25823: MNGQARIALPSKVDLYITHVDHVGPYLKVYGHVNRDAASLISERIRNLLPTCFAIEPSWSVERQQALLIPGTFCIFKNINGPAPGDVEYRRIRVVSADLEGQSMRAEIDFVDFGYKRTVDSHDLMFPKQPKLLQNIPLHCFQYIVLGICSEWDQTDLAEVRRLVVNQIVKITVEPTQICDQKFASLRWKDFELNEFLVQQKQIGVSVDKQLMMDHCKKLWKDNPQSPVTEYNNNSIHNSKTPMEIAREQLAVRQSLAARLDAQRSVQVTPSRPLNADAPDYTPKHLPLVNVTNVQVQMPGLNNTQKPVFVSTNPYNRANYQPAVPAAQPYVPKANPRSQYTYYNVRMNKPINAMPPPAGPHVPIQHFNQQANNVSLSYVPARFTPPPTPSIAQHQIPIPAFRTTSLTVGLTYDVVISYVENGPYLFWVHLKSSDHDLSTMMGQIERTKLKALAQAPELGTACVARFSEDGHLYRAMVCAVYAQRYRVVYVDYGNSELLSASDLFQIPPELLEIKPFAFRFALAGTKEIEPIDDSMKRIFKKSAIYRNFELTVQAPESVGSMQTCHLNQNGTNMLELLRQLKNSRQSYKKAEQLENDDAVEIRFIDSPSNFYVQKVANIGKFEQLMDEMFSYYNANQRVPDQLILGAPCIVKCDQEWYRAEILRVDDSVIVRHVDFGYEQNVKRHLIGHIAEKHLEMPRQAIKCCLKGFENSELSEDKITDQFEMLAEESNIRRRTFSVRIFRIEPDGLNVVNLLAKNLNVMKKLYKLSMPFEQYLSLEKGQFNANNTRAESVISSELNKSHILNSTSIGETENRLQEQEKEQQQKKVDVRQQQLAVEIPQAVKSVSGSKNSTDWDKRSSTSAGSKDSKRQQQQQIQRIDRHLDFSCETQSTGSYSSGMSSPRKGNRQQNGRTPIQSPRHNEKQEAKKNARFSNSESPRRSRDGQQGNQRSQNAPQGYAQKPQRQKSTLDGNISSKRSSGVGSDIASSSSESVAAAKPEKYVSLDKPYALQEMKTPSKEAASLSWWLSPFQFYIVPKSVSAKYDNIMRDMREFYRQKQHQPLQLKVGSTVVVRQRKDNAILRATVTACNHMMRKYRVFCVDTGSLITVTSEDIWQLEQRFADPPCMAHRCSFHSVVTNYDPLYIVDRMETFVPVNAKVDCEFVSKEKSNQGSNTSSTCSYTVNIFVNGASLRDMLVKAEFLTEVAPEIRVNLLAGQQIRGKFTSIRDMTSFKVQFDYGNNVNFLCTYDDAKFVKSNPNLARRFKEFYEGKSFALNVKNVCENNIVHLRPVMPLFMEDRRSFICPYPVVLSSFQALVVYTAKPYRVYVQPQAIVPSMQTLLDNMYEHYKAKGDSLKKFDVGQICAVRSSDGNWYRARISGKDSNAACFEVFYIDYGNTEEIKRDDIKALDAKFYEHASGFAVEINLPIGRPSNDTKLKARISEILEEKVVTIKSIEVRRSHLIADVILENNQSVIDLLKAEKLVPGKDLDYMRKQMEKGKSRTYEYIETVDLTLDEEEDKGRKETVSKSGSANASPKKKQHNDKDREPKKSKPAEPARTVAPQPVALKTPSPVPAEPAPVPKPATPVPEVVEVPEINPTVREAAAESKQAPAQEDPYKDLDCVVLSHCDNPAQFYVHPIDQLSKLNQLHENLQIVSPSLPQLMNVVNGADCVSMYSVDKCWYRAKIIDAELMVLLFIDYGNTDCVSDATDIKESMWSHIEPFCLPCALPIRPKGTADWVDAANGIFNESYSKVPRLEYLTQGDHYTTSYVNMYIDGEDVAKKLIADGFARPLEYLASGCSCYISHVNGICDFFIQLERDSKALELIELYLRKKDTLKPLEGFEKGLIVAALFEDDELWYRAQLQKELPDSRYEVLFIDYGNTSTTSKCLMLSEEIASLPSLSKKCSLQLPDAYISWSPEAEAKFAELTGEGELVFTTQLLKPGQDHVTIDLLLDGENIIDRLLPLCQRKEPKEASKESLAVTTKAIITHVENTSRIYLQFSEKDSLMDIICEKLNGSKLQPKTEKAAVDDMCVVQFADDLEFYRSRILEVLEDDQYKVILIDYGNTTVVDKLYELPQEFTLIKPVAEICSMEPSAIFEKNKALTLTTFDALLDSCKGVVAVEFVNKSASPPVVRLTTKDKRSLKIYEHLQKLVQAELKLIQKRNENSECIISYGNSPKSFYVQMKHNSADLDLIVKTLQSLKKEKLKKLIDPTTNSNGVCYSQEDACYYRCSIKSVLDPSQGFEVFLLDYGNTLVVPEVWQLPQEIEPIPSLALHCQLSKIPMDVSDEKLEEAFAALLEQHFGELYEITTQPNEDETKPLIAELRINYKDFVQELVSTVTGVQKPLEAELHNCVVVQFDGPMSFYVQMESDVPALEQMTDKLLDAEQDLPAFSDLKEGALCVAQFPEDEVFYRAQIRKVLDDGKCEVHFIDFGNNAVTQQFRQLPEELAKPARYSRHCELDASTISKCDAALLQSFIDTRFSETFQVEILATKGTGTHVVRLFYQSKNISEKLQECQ

Assays:
[1] = target: T1, GFP tagged wild-type Aub (ovary) (Drosophila melanogaster) (UniProt O76922); assay: co-IP; GFP tagged Aub immunoprecipitated from ovarian lysate (NT2 buffer: 50 mM Tris pH 7.4, 150 mM NaCl, 1 mM MgCl2, 0.05% Igepal), 4 °C, 4 h; Western blot
T1 sequence (chain, symmetric dimethylarginine (sDMA) in the N-terminal region, detected with SYM11): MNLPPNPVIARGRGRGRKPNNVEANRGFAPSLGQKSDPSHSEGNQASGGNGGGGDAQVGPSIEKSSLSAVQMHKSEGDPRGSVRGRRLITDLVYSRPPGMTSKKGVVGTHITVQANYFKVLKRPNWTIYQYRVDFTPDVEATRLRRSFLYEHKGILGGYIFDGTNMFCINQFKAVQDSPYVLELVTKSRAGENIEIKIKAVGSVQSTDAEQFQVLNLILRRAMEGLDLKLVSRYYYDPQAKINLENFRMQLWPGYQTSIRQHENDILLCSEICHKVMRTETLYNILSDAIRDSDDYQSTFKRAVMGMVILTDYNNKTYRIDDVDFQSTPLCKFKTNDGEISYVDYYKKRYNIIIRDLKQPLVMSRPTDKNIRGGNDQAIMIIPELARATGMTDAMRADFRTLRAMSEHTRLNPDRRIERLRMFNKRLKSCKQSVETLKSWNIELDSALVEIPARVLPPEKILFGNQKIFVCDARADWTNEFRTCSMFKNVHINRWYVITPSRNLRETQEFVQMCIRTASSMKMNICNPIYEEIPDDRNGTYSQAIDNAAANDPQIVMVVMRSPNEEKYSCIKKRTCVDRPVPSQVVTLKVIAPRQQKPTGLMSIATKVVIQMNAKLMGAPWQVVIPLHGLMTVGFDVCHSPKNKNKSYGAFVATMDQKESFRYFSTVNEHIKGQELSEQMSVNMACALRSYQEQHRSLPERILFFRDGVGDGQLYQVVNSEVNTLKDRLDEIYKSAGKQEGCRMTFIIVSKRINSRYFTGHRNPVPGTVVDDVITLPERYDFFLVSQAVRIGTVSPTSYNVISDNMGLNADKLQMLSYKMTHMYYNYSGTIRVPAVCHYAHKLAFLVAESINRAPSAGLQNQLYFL

[2] = target: T2, FLAG-tagged Aub (Drosophila melanogaster) (UniProt O76922); assay: co-IP; two-step sequential immunoprecipitation from S2 cells co-expressing FLAG-Aub, HA-Ago3 and GFP-deltaN-Krimper: FLAG IP, elution with 3X FLAG peptide, then GFP IP; Western blot; lysis buffer 20 mM Tris pH 7.4, 200 mM KCl, 0.1% Tween-20, 0.1% Igepal, 100 μg/mL RNase A
T2 sequence: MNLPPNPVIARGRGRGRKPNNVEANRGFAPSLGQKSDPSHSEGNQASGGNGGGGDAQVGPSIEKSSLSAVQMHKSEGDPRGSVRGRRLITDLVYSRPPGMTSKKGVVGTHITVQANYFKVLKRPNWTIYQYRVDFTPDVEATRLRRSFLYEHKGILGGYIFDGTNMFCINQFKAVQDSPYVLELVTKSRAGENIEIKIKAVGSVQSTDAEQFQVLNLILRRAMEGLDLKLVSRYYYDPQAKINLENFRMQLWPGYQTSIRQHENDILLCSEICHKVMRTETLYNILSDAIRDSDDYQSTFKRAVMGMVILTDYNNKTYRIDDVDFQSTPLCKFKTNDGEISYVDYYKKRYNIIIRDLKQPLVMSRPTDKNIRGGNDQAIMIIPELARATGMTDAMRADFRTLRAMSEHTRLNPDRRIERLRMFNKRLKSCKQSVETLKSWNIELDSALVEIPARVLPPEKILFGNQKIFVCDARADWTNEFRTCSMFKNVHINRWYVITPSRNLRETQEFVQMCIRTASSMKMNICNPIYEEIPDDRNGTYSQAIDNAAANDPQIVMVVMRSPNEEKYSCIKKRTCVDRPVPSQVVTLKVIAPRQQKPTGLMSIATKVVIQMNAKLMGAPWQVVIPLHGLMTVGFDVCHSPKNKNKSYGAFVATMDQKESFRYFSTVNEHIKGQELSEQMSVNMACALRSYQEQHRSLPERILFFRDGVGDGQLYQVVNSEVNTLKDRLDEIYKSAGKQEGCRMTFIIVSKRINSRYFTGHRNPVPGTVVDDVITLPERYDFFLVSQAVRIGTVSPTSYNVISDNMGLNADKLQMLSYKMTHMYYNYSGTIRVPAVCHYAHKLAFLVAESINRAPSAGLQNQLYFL

[3] = target: T3, GFP-tagged truncated Krimper lacking its N terminal dimerization domain (Drosophila melanogaster) (UniProt A1ZAC4); assay: as above
T3 sequence: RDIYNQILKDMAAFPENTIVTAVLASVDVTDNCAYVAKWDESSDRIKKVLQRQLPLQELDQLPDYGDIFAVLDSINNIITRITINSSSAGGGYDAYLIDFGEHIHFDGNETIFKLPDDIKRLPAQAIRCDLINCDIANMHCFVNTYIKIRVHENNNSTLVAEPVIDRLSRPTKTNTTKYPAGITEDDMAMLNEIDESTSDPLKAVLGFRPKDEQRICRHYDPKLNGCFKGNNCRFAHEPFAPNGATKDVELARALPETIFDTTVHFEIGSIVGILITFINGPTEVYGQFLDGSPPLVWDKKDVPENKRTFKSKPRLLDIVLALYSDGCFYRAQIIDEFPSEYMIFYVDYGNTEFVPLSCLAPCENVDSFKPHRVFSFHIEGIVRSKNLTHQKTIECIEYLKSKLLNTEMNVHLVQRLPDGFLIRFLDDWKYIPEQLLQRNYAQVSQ

binding [1]: binds
Molecule: Tudor (from UniProt P25823 1-2515)

binding [2]: binds
B1: GFP-tagged truncated Krimper lacking its N terminal dimerization domain (domain or fragment, UniProt A1ZAC4 301-746)
chain: RDIYNQILKDMAAFPENTIVTAVLASVDVTDNCAYVAKWDESSDRIKKVLQRQLPLQELDQLPDYGDIFAVLDSINNIITRITINSSSAGGGYDAYLIDFGEHIHFDGNETIFKLPDDIKRLPAQAIRCDLINCDIANMHCFVNTYIKIRVHENNNSTLVAEPVIDRLSRPTKTNTTKYPAGITEDDMAMLNEIDESTSDPLKAVLGFRPKDEQRICRHYDPKLNGCFKGNNCRFAHEPFAPNGATKDVELARALPETIFDTTVHFEIGSIVGILITFINGPTEVYGQFLDGSPPLVWDKKDVPENKRTFKSKPRLLDIVLALYSDGCFYRAQIIDEFPSEYMIFYVDYGNTEFVPLSCLAPCENVDSFKPHRVFSFHIEGIVRSKNLTHQKTIECIEYLKSKLLNTEMNVHLVQRLPDGFLIRFLDDWKYIPEQLLQRNYAQVSQ

binding [3]: binds
B2: HA-tagged Ago3 (protein, UniProt Q7PLK0 1-867)
chain: MSGRGNLLSLFNKNAGNMGKSISSKDHEIDSGLDFNNSESSGERLLSSHNIETDLITTLQHVNISVGRGRARLIDTLKTDDHTSNQFITSESKENITKKTKGPESEAIASENGLFFPDLIYGSKGSSVNIYCNYLKLTTDESKGVFNYEVRFFPPIDSVHLRIKYLNDHKDKLGGTKTFDGNTLYLPILLPNKMTVFISKAEDVELQIRILYKKKEEMRNCTQLYNILFDRVMKVLNYVKFDRKQFDPSRPKIIPLAKLEVWPGYVTAVDEYKGGLMLCCDVSHRILCQKTVLEMLVDLYQQNVEHYQESARKMLVGNIVLTRYNNRTYKINDICFDQNPTCQFEIKTGCTSYVEYYKQYHNINIKDVNQPLIYSIKKSRGIPAERENLQFCLIPELCYLTGLRDEVRSDNKLMREIATFTRVSPNQRQMALNKFYENVSNTPAAQEILNSWGLSLTNNSNKISGRQMDIEQIYFSKISVSAGRSAEFSKHAVTNEMLKVVHLSKWIIIHLRNYRQAATSLLDNMKQACESLGMNISNPTMISLDHDRIDAYIQALRRNITMNTQMVVCICHNRRDDRYAAIKKICCSEIPIPSQVINAKTLQNDLKIRSVVQKIVLQMNCKLGGSLWTVKIPFKNVMICGIDSYHDPSNRGNSVAAFVASINSSYSQWYSKAVVQTKREEIVNGLSASFEIALKMYRKRNGKLPTNIIIYRDGIGDGQLYTCLNYEIPQFEMVCGNRIKISYIVVQKRINTRIFSGSGIHLENPLPGTVVDQHITKSNMYDFFLVSQLVRQGTVTPTHYVVLRDDCNYGPDIIQKLSYKLCFLYYNWAGTVRIPACCMYAHKLAYLIGQSIQRDVAEALSEKLFYL
